This is one part of the list. Many values rest on one well or one pass, so single values are uncertain.
Assays:
Test in all cases: cell count relative to DMSO control; melanoma cells; higher = more viable cells
Conditions in all cases: library dose: standard library concentration; 72 h
G361 = system: G361
IPC-298 = system: IPC-298
IST-MEL1 = system: IST-MEL1
LB2518-MEL = system: LB2518-MEL
LOXIMVI = system: LOXIMVI
MEL-HO = system: MEL-HO
MZ2-MEL = system: MZ2-MEL
MeWo = system: MeWo
RPMI7951 = system: RPMI7951
RVH-421 = system: RVH-421
SkMel28 = system: SkMel28
SkMel2 = system: SkMel2
SkMel30 = system: SkMel30
SkMel5 = system: SkMel5
UACC257 = system: UACC257
UACC62 = system: UACC62
WM115 = system: WM115
WM1716 = system: WM1716
WM1745 = system: WM1745
WM3526 = system: WM3526
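Note: cells treated in 1,536-well plates, then fixed and DAPI-stained, with nuclei counted from automated high-throughput microscope images.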

| SMILES | cell count (G361) [%] | cell count (IPC-298) [%] | cell count (IST-MEL1) [%] | cell count (LB2518-MEL) [%] | cell count (LOXIMVI) [%] | cell count (MEL-HO) [%] | cell count (MZ2-MEL) [%] | cell count (MeWo) [%] | cell count (RPMI7951) [%] | cell count (RVH-421) [%] | cell count (SkMel28) [%] | cell count (SkMel2) [%] | cell count (SkMel30) [%] | cell count (SkMel5) [%] | cell count (UACC257) [%] | cell count (UACC62) [%] | cell count (WM115) [%] | cell count (WM1716) [%] | cell count (WM1745) [%] | cell count (WM3526) [%] |
| --- | --- | --- | --- | --- | --- | --- | --- | --- | --- | --- | --- | --- | --- | --- | --- | --- | --- | --- | --- | --- |
| CCc1ccc(CCOc2ccc(CC3SC(=O)NC3=O)cc2)nc1 (stereo not given) [pioglitazone] + c1cc(-c2cnn3cc(-c4ccc(OCCN5CCCCC5)cc4)cnc23)ccn1 [Dorsomorphin] (first compound 10 µM, partner dose 2 µM) | 59.1 | 86 | 91.9 | 90.9 | 92.7 | 80.1 | 64.9 | 62.6 | 81.7 | 96.9 | 71 | 75.3 | 83.8 | 76.6 | 82 | 79.1 | 77.2 | 85.9 | 53.1 | 79.8 |
| CCCCCCCCc1ccc(CCC(N)(CO)CO)cc1 [fingolimod] + O=C(O)c1ccc2c(c1)nc(Nc1cccc(Cl)c1)c1ccncc12 [CX4945] (first compound 10 µM, partner dose 2 µM) | 2.46 | 41.6 | 3.32 | 0.19 | 17.1 | 9.37 | 1.96 | 36.5 | 2.39 | 18.7 | 1.49 | 0.392 | 8.1 | 46.1 | 72.1 | 13.1 | 17.5 | 35.5 | 13 | 23 |
| NC(=O)c1ccc(N(C(N)=O)c2c(F)cccc2F)nc1-c1ccc(F)cc1F + NC(=O)Nc1cc(-c2cccc(F)c2)sc1C(=O)N[C@H]1CCCNC1 [AZD7762] (first compound 2 µM, partner dose 0.1 µM) | 82.5 | 89.8 | 128 | 60.9 | 87.3 | 84.3 | 104 | 77.7 | 35.2 | 136 | 40.5 | 85.8 | 80.1 | 83.4 | 84.7 | 68.7 | 68 | 74 | 45.3 | 55.8 |
| NC(=O)c1ccc(N(C(N)=O)c2c(F)cccc2F)nc1-c1ccc(F)cc1F + Nc1ccn([C@@H]2O[C@H](CO)[C@@H](O)C2(F)F)c(=O)n1 [gemcitabine] (first compound 2 µM, partner dose 0.002 µM) | 36.3 | 35.1 | 32.6 | 49 | 71.5 | 47.1 | 64 | 41.9 | 58.7 | 91.1 | 72.1 | 78.1 | 92.4 | 81 | 104 | 75.7 | 72.9 | 66.7 | 37.6 | 104 |
| CCCCCCCCc1ccc(CCC(N)(CO)CO)cc1 [fingolimod] + CC(=O)O[C@@]12CO[C@@H]1C[C@H](O)[C@@]1(C)C(=O)[C@H](O)C3=C(C)[C@@H](OC(=O)[C@H](O)[C@@H](NC(=O)OC(C)(C)C)c4ccccc4)C[C@@](O)([C@@H](OC(=O)c4ccccc4)[C@H]21)C3(C)C [Docetaxel] (first compound 10 µM, partner dose 0.0005 µM) | 1.78 | 31.2 | 13.5 | 0.219 | 32 | 7.6 | 9.84 | 13.4 | 0.966 | 18.8 | 2.23 | 0.319 | 18.1 | 49.8 | 54 | 12.7 | 10.3 | 33.5 | 2.69 | 31.4 |
| CC(C)(C)c1cnc(CSc2cnc(NC(=O)C3CCNCC3)s2)o1 + O=C(Nc1ccccc1)c1cc([N+](=O)[O-])ccc1Cl [GW9662] (first compound 0.05 µM, partner dose 10 µM) | 86.7 | 116 | 101 | 65.5 | 65.2 | 101 | 60 | 68.3 | 41.2 | 70.2 | 51.4 | 74.6 | 65.9 | 53.9 | 76.8 | 65.4 | 64.9 | 56.7 | 93.2 | 87.6 |
| CC(C)(C)c1cnc(CSc2cnc(NC(=O)C3CCNCC3)s2)o1 + O=C(Nc1cccc(Cl)c1)Nc1ncc(CCNc2ncnc3ccsc23)s1 [SNS314] (first compound 0.05 µM, partner dose 0.004 µM) | 95.6 | 98 | 81.1 | 75.9 | 62.9 | 88.6 | 85.3 | 81.8 | 45.6 | 100 | 52.7 | 64.5 | 90.2 | 82.1 | 82.7 | 87.7 | 54.1 | 59.8 | 67.7 | 98.3 |
| Cc1ccc(NC(=O)c2cccc(N(C)C)c2)cc1NC(=O)c1ccc(O)cc1 + COC(=O)c1sccc1S(=O)(=O)Nc1ccc(Nc2ccccc2)cc1OC [GSK0660] (first compound 10 µM, partner dose 5 µM) | 93.3 | 91.2 | 89.8 | 87 | 117 | 82.8 | 92.2 | 94.5 | 76.6 | 109 | 75.8 | 80.4 | 79.7 | 99.8 | 84.1 | 110 | 101 | 99.1 | 82.7 | 85.8 |
| NC(=O)c1ccc(N(C(N)=O)c2c(F)cccc2F)nc1-c1ccc(F)cc1F + CCN(CC)CCNC(=O)c1c(C)[nH]c(/C=C2\C(=O)Nc3ccc(F)cc32)c1C [sunitinib] (first compound 2 µM, partner dose 2 µM) | 77 | 72 | 119 | 56.9 | 153 | 108 | 106 | 51 | 91.9 | 83.1 | 35.9 | 62.1 | 52.5 | 49.4 | 104 | 52.5 | 59.1 | 92.8 | 46.4 | 52.8 |
| CCCCCCCCc1ccc(CCC(N)(CO)CO)cc1 [fingolimod] + Cn1nnc2c(C(N)=O)ncn2c1=O [temozolomide] (first compound 10 µM, partner dose 10 µM) | 1.39 | 73.8 | 5 | 44.5 | 42.5 | 9.14 | 64.5 | 70.7 | 1.55 | 21.3 | 8.66 | 55 | 34.6 | 77.9 | 77.9 | 41.4 | 35 | 43.7 | 12.1 | 67.4 |
| COc1cc2c(Oc3ccc4[nH]c(C)cc4c3F)ncnc2cc1OCCCN1CCCC1 [cediranib] + CCc1ccc(CCOc2ccc(CC3SC(=O)NC3=O)cc2)nc1 [pioglitazone] (first compound 2 µM, partner dose 10 µM) | 95.2 | 99.7 | 104 | 126 | 97.4 | 99.1 | 55.2 | 83.8 | 99 | 82.2 | 126 | 86.5 | 99 | 68.1 | 95.1 | 87.5 | 86.9 | 96 | 98.5 | 81.1 |
| NC(=O)c1ccc(N(C(N)=O)c2c(F)cccc2F)nc1-c1ccc(F)cc1F + O=C(O)c1ccc2c(c1)nc(Nc1cccc(Cl)c1)c1ccncc12 [CX4945] (first compound 2 µM, partner dose 2 µM) | 64.6 | 71.6 | 91 | 103 | 46 | 64.2 | 80 | 77.8 | 65.7 | 83.9 | 61.3 | 96.9 | 77.7 | 63.8 | 144 | 98.6 | 112 | 96.3 | 65.9 | 67.3 |
| NC(=O)c1ccc(N(C(N)=O)c2c(F)cccc2F)nc1-c1ccc(F)cc1F + Cn1c(Nc2ccc(C(F)(F)F)cc2)nc2cc(Oc3ccnc(-c4ncc(C(F)(F)F)[nH]4)c3)ccc21 [CHIR265] (first compound 2 µM, partner dose 0.4 µM) | 27.9 | 37.1 | 95.7 | 39.3 | 54.3 | 76.6 | 77.9 | 78.2 | 63.6 | 75.7 | 40.2 | 59.6 | 67.8 | 47.9 | 92.4 | 44.5 | 51.2 | 75.9 | 60.4 | 66 |
| Cc1ccc(NC(=O)c2cccc(N(C)C)c2)cc1NC(=O)c1ccc(O)cc1 + CCc1ccc(CCOc2ccc(CC3SC(=O)NC3=O)cc2)nc1 [pioglitazone] (first compound 10 µM, partner dose 10 µM) | 88.9 | 103 | 89.2 | 104 | 109 | 88.5 | 84.2 | 95.1 | 106 | 98.3 | 95.1 | 98.9 | 90.4 | 86.7 | 86.9 | 80.6 | 106 | 97.2 | 95.2 | 90.6 |
| CC(C)(C)c1cnc(CSc2cnc(NC(=O)C3CCNCC3)s2)o1 + O=C(O)C(=O)Nc1sc2c(c1C(=O)O)CCNC2 [TCS401] (first compound 0.05 µM, partner dose 8.33333 µM) | 130 | 103 | 112 | 83.2 | 72.5 | 93.1 | 89.7 | 94.5 | 40.9 | 113 | 72.8 | 89.7 | 122 | 59.9 | 92.9 | 95.4 | 91 | 85.8 | 76.1 | 96.7 |
| CC(C)(C)c1cnc(CSc2cnc(NC(=O)C3CCNCC3)s2)o1 + Cn1cncc1[C@@](N)(c1ccc(Cl)cc1)c1ccc2c(c1)c(-c1cccc(Cl)c1)cc(=O)n2C [tipifarnib] (first compound 0.05 µM, partner dose 0.05 µM) | 75.6 | 90.9 | 84.5 | 57.5 | 49.7 | 86.7 | 73.7 | 76.1 | 13.4 | 78.4 | 35.7 | 51.4 | 75.3 | 53.7 | 81.4 | 60.9 | 64.3 | 48 | 51.9 | 67.8 |
| NC(=O)c1ccc(N(C(N)=O)c2c(F)cccc2F)nc1-c1ccc(F)cc1F + Cn1c(=O)n(-c2ccc(C(C)(C)C#N)cc2)c2c3cc(-c4cnc5ccccc5c4)ccc3ncc21 [NVP-BEZ235] (first compound 2 µM, partner dose 0.02 µM) | 49.1 | 78.4 | 80.2 | 75.4 | 52.9 | 77.1 | 82.5 | 57.5 | 60.1 | 72 | 41.6 | 75 | 66.3 | 54.3 | 99.5 | 53.5 | 76.6 | 74.2 | 80.6 | 69 |

Source: the supplement of paper PMC4604168 (melanoma cell lines)
